# This is one part of the list.
# Columns and labels:
# Experiment in all cases: glycan array binding signal (z-score within array); higher = stronger binding
# Details in all cases: glycan notation: IUPAC condensed, linker removed
# [1] = target: Neu5Ac(a2-3)Gal(b1-3)GalNAc(b1-4)[Neu5Ac(a2-3)]Gal(b1-4)Glc
# In short: (§1)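 The Consortium for Functional Glycomics database supplied 3228 glycan arrays, of which those lacking an available protein sequence were dropped. The binding signal, a within-array Z-score, was averaged across arrays of the same protein sequence and across linkers. Negative scores can be read as non-binding.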
# [2] = target: Neu5Ac(a2-3)Gal(b1-3)GalNAc(b1-4)[Neu5Ac(a2-8)Neu5Ac(a2-3)]Gal(b1-4)Glc
# In short: as §1
# [3] = target: Neu5Ac(a2-3)Gal(b1-3)GalNAc6S
# In short: as §1
# [4] = target: Neu5Ac(a2-3)Gal(b1-3)GlcNAc
# In short: as §1
# [5] = target: Neu5Ac(a2-3)Gal(b1-3)GlcNAc(b1-2)Man
# In short: as §1
# [6] = target: Neu5Ac(a2-3)Gal(b1-3)GlcNAc(b1-2)Man(a1-3)[GlcNAc(b1-4)][Neu5Ac(a2-3)Gal(b1-3)GlcNAc(b1-2)Man(a1-6)]Man(b1-4)GlcNAc(b1-4)GlcNAc
# In short: as §1
# [7] = target: Neu5Ac(a2-3)Gal(b1-3)GlcNAc(b1-2)Man(a1-3)[Neu5Ac(a2-3)Gal(b1-3)GlcNAc(b1-2)Man(a1-6)]Man(b1-4)GlcNAc(b1-4)GlcNAc
# In short: as §1
# [8] = target: Neu5Ac(a2-3)Gal(b1-3)GlcNAc(b1-3)Gal(b1-3)GlcNAc
# In short: as §1
# [9] = target: Neu5Ac(a2-3)Gal(b1-3)GlcNAc(b1-3)Gal(b1-4)GlcNAc
# In short: as §1
# [10] = target: Neu5Ac(a2-3)Gal(b1-3)GlcNAc(b1-3)GalNAc
# In short: as §1
# [11] = target: Neu5Ac(a2-3)Gal(b1-3)GlcNAc(b1-4)Gal(b1-4)Glc
# In short: as §1
# [12] = target: Neu5Ac(a2-3)Gal(b1-3)GlcNAc(b1-6)GalNAc
# In short: as §1
# [13] = target: Neu5Ac(a2-3)Gal(b1-3)GlcNAc6S
# In short: as §1
# [14] = target: Neu5Ac(a2-3)Gal(b1-3)[Fuc(a1-4)]GlcNAc
# In short: as §1
# [15] = target: Neu5Ac(a2-3)Gal(b1-3)[Fuc(a1-4)]GlcNAc(b1-3)Gal(b1-3)[Fuc(a1-4)]GlcNAc
# In short: as §1
# [16] = target: Neu5Ac(a2-3)Gal(b1-3)[Fuc(a1-4)]GlcNAc(b1-3)Gal(b1-4)[Fuc(a1-3)]GlcNAc
# In short: as §1
# [17] = target: Neu5Ac(a2-3)Gal(b1-3)[GlcNAc(b1-6)]GalNAc
# In short: as §1
# [18] = target: Neu5Ac(a2-3)Gal(b1-3)[Neu5Ac(a2-3)Gal(b1-4)]GlcNAc
# In short: as §1
# [19] = target: Neu5Ac(a2-3)Gal(b1-3)[Neu5Ac(a2-6)]GalNAc
# In short: as §1
# [20] = target: Neu5Ac(a2-3)Gal(b1-3)[Neu5Ac(a2-6)]GlcNAc(b1-3)[Fuc(a1-3)[Gal(b1-4)]GlcNAc(b1-6)]Gal(b1-4)Glc
# In short: as §1
# [21] = target: Neu5Ac(a2-3)Gal(b1-3)]Neu5Ac(a2-3)Gal(b1-4)]GlcNAc
# In short: as §1
# Neu5Ac(a2-3)Gal(b1-4)Glc = target: Neu5Ac(a2-3)Gal(b1-4)Glc
# In short: as §1
# [22] = target: Neu5Ac(a2-3)Gal(b1-4)GlcNAc
# In short: as §1
# [23] = target: Neu5Ac(a2-3)Gal(b1-4)GlcNAc(b1-2)Man
# In short: as §1
# [24] = target: Neu5Ac(a2-3)Gal(b1-4)GlcNAc(b1-2)Man(a1-3)[GlcNAc(b1-2)Man(b1-4)GlcNAc(b1-2)Man(a1-6)]Man(b1-4)GlcNAc(b1-4)GlcNAc
# In short: as §1
# [25] = target: Neu5Ac(a2-3)Gal(b1-4)GlcNAc(b1-2)Man(a1-3)[GlcNAc(b1-4)][Neu5Ac(a2-3)Gal(b1-4)GlcNAc(b1-2)Man(a1-6)]Man(b1-4)GlcNAc(b1-4)GlcNAc
# In short: as §1
# [26] = target: Neu5Ac(a2-3)Gal(b1-4)GlcNAc(b1-2)Man(a1-3)[Neu5Ac(a2-3)Gal(b1-4)GlcNAc(b1-2)Man(a1-6)]Man(b1-4)GlcNAc(b1-4)GlcNAc
# In short: as §1
# [27] = target: Neu5Ac(a2-3)Gal(b1-4)GlcNAc(b1-2)Man(a1-3)[Neu5Ac(a2-3)Gal(b1-4)GlcNAc(b1-2)Man(a1-6)]Man(b1-4)GlcNAc(b1-4)[Fuc(a1-6)]GlcNAc
# In short: as §1
# [28] = target: Neu5Ac(a2-3)Gal(b1-4)GlcNAc(b1-2)Man(a1-3)[Neu5Ac(a2-6)Gal(b1-4)GlcNAc(b1-2)Man(a1-6)]Man(b1-4)GlcNAc(b1-4)GlcNAc
# In short: as §1
# [29] = target: Neu5Ac(a2-3)Gal(b1-4)GlcNAc(b1-2)[Neu5Ac(a2-3)Gal(b1-4)GlcNAc(b1-4)]Man(a1-3)[GlcNAc(b1-4)][Neu5Ac(a2-3)Gal(b1-4)GlcNAc(b1-2)[Neu5Ac(a2-3)Gal(b1-4)GlcNAc(b1-6)]Man(a1-6)]Man(b1-4)GlcNAc(b1-4)GlcNAc
# In short: as §1
# [30] = target: Neu5Ac(a2-3)Gal(b1-4)GlcNAc(b1-2)[Neu5Ac(a2-3)Gal(b1-4)GlcNAc(b1-4)]Man(a1-3)[GlcNAc(b1-4)][Neu5Ac(a2-3)Gal(b1-4)GlcNAc(b1-4)Man(a1-6)]Man(b1-4)GlcNAc(b1-4)GlcNAc
# In short: as §1
# [31] = target: Neu5Ac(a2-3)Gal(b1-4)GlcNAc(b1-2)[Neu5Ac(a2-3)Gal(b1-4)GlcNAc(b1-6)]Man(a1-6)[Neu5Ac(a2-3)Gal(b1-4)GlcNAc(b1-2)Man(a1-3)]Man(b1-4)GlcNAc(b1-4)GlcNAc
# In short: as §1
# [32] = target: Neu5Ac(a2-3)Gal(b1-4)GlcNAc(b1-2)[Neu5Ac(a2-3)Gal(b1-4)GlcNAc(b1-6)]Man(a1-6)[Neu5Ac(a2-3)Gal(b1-4)GlcNAc(b1-2)Man(a1-3)][GlcNAc(b1-4)]Man(b1-4)GlcNAc(b1-4)GlcNAc
# In short: as §1
# [33] = target: Neu5Ac(a2-3)Gal(b1-4)GlcNAc(b1-3)Gal
# In short: as §1
# [34] = target: Neu5Ac(a2-3)Gal(b1-4)GlcNAc(b1-3)Gal(b1-3)GlcNAc
# In short: as §1
# [35] = target: Neu5Ac(a2-3)Gal(b1-4)GlcNAc(b1-3)Gal(b1-4)GlcNAc
# In short: as §1
# [36] = target: Neu5Ac(a2-3)Gal(b1-4)GlcNAc(b1-3)Gal(b1-4)GlcNAc(b1-2)Man(a1-3)[Neu5Ac(a2-3)Gal(b1-4)GlcNAc(b1-3)Gal(b1-4)GlcNAc(b1-2)Man(a1-6)]Man(b1-4)GlcNAc(b1-4)GlcNAc
# In short: as §1
# [37] = target: Neu5Ac(a2-3)Gal(b1-4)GlcNAc(b1-3)Gal(b1-4)GlcNAc(b1-3)Gal(b1-4)GlcNAc
# In short: as §1
binder,measurement,setting,value
PpFlo1 (Pichia pastoris) (protein) MGSSHHHHHHSSGLVPRGSHMQESGDGDISDSAYACDIDATRYDGFNATIYEFQPGDGRLTRDPVFMSTGYLNRTQLHSITGVTDPGFSIYTPGVPTTTLYGIPNVNWENLLLELKGYFRAEVSGDYGLSLRNIDDSAILFFGKETAFQCCNENSISNEASTDYSLFTIFRQEGDETTNLDSFTYTQYLEAGKYYPVRTFFVNIERHAVFNFTMTLPDGTELTDFHNYIYQFGALDEEQCQA,glycan array binding signal (z-score),[1],-0.041
same,glycan array binding signal (z-score),[2],-0.125
same,glycan array binding signal (z-score),[3],-0.417
same,glycan array binding signal (z-score),[4],0.371
same,glycan array binding signal (z-score),[5],-0.182
same,glycan array binding signal (z-score),[6],-0.247
same,glycan array binding signal (z-score),[7],-0.67
same,glycan array binding signal (z-score),[8],-0.308
same,glycan array binding signal (z-score),[9],-0.018
same,glycan array binding signal (z-score),[10],-0.532
same,glycan array binding signal (z-score),[11],0.686
same,glycan array binding signal (z-score),[12],-0.067
same,glycan array binding signal (z-score),[13],-0.158
same,glycan array binding signal (z-score),[14],0.881
same,glycan array binding signal (z-score),[15],-0.296
same,glycan array binding signal (z-score),[16],-0.228
same,glycan array binding signal (z-score),[17],-0.516
same,glycan array binding signal (z-score),[18],-0.257
same,glycan array binding signal (z-score),[19],0.465
same,glycan array binding signal (z-score),[20],-0.201
same,glycan array binding signal (z-score),[21],-0.058
same,glycan array binding signal (z-score),Neu5Ac(a2-3)Gal(b1-4)Glc,-0.357
same,glycan array binding signal (z-score),[22],-0.203
same,glycan array binding signal (z-score),[23],0.014
same,glycan array binding signal (z-score),[24],-0.491
same,glycan array binding signal (z-score),[25],-0.44
same,glycan array binding signal (z-score),[26],-0.456
same,glycan array binding signal (z-score),[27],0.115
same,glycan array binding signal (z-score),[28],-0.44
same,glycan array binding signal (z-score),[29],-0.162
same,glycan array binding signal (z-score),[30],-0.022
same,glycan array binding signal (z-score),[31],0.699
same,glycan array binding signal (z-score),[32],-0.37
same,glycan array binding signal (z-score),[33],-0.31
same,glycan array binding signal (z-score),[34],-0.004
same,glycan array binding signal (z-score),[35],0.707
same,glycan array binding signal (z-score),[36],-0.19
same,glycan array binding signal (z-score),[37],-0.374
